According to the RNAGym collection of RNA variant scans (doi:10.7554/elife.90254):
Read counts are not given, so values of variants with three or more changes are uncertain.

B1: LINE1-mini (parent)
chain: GGCAGAGCUCAACACAGCGUGGCAAAGUGGCUGUGGCUAGACUGCC

Variants of: B1
Experiment: self-cleavage, relative activity (ratio to wild type); higher = more cleavage; in vitro, sequencing; the parent is a self-cleaving ribozyme

Row | Variant | self-cleavage
1 | G7A C15G G44U C45A | 0.23
2 | G7A C15U C31G | 0.11
3 | G7A C18A G19A C23G C42U G44A | 0.05
4 | G7A C18A G40U | 0.01
5 | G7A C18A U28A U34G | 0.03
6 | G7A C18G A39U | 0.09
7 | G7A C18U C42G | 0.01
8 | G7A C18U G36A U38G | 0.03
9 | G7A C18U U38C U43G | 0.04
10 | G7A C23A A24U C31U C37G | 0.02
11 | G7A C23G G44A | 0.07
12 | G7A C31G G33C | 0
13 | G7A C31G G35U G40A | 0.08
14 | G7A C31G U34C | 0.06
15 | G7A C31U U43G | 0.07
16 | G7A C37A G40A U43C | 0.34
17 | G7A G17A A24G C31G | 0.03
18 | G7A G17A C18A | 0.13
19 | G7A G17A G22A C31U | 0.26
20 | G7A G17A G29A C31A C46U | 0.11
21 | G7A G17A G33U | 0.05
22 | G7A G17C A39C | 0.04
23 | G7A G17C G19A | 0.09
24 | G7A G17C G30A C37U A41C C45A | 0.06

Row | Variant | self-cleavage
25 | G7A G17U G35U | 0.21
26 | G7A G19A A25G U28A | 0.11
27 | G7A G19A U32A G40U | 0.34
28 | G7A G19C C23G | 0.07
29 | G7A G19C U28G | 0.03
30 | G7A G19U C37U A39U | 0.08
31 | G7A G19U C46G | 0.09
32 | G7A G19U U20G G22A U38C | 0.02
33 | G7A G21A A24G U38C | 0.08
34 | G7A G21A U34A C42G C45G | 0.08
35 | G7A G21C G29C C31A C37G C42A | 0.01
36 | G7A G21U G36C | 0.07
37 | G7A G22C G27A | 0.07
38 | G7A G22U G27A U32C G36U | 0.25
39 | G7A G22U G30C A39U | 0.97
40 | G7A G22U G33A G40U | 0.35
41 | G7A G22U G33A U38A | 0.25
42 | G7A G22U U34G | 0.12
43 | G7A G27A C42U | 0.08
44 | G7A G27A G30A C42A | 0.36
45 | G7A G27A G40A C42U | 0
46 | G7A G27C G40U | 0.32
47 | G7A G27U G30U | 0.02
48 | G7A G29A U32G A41U | 0.04

Row | Variant | self-cleavage
49 | G7A G29A U34G C45U | 0.29
50 | G7A G29C G30U | 0.1
51 | G7A G29C G33U G36U C37U C42U | 0.01
52 | G7A G29C G36A U38C | 0.23
53 | G7A G29U C31A | 0.09
54 | G7A G29U C42U | 0.17
55 | G7A G30A A39C A41G | 0.15
56 | G7A G30A C31U C37G | 0.03
57 | G7A G30A C37G A39U C46U | 0.09
58 | G7A G30U C31A | 0.09
59 | G7A G33A C37U | 0.24
60 | G7A G33A G40U U43G C45A | 0.07
61 | G7A G33A U34C | 0.11
62 | G7A G33C U34A A41G | 0.01
63 | G7A G35A C37U | 0.58
64 | G7A G35U C42A | 0.14
65 | G7A G36C U43C | 0.16
66 | G7A G40A A41U | 0.23
67 | G7A G44A C46G | 0.33
68 | G7A U9A U34C G44U | 0.22
69 | G7A U9C C15U G19C G29C U34G | 0.01
70 | G7A U9C G17U G22U C46G | 0.03
71 | G7A U9C G22C U32C C42A | 0.01
72 | G7A U9C G33U | 0.02

Row | Variant | self-cleavage
73 | G7A U9G A26U G29C A39U | 0.01
74 | G7A U9G C13U A16U | 0.13
75 | G7A U9G C18U U20G G36A U43G C45G | 0.04
76 | G7A U9G G27C | 0.22
77 | G7A U20A A39G | 0.09
78 | G7A U20A G21C U32G | 0.03
79 | G7A U20A G27C | 0.02
80 | G7A U20A G27U G33A | 0.11
81 | G7A U20A G29U C46A | 0.08
82 | G7A U20C C42G | 0.03
83 | G7A U20G C23A U28G | 0.03
84 | G7A U20G C31U | 0.07
85 | G7A U20G G21A | 0.07
86 | G7A U28A G29U C37A | 0
87 | G7A U28G G36U | 0.05
88 | G7A U32A G36U C42U | 0.05
89 | G7A U32C A41G | 0.1
90 | G7A U32G C42A | 0.42
91 | G7A U32G C45U | 0.1
92 | G7A U34G A39C | 0.02
93 | G7A U38G A39U | 0.02
94 | G7C A11C A24C A26U | 0
95 | G7C A11C C18G | 0.01
96 | G7C A11C C31U | 0.02

Row | Variant | self-cleavage
97 | G7C A11U A24U | 0.02
98 | G7C A11U C13G A14C A24G C37A | 0
99 | G7C A11U C18U G22U | 0.02
100 | G7C A11U G17U G19A G21U | 0.02
101 | G7C A11U U28C G33U | 0.03
102 | G7C A12C C23U A25U | 0.01
103 | G7C A12C C23U U43A | 0.01
104 | G7C A12C G19C G36A A39G | 0
105 | G7C A12C G21C A39G | 0
106 | G7C A12G C13G G21U U32C G35U A39U G40U | 0
107 | G7C A12G C15U G30C G36C C37U | 0.01
108 | G7C A12G C42G | 0.02
109 | G7C A12G G44U | 0.05
110 | G7C A12U A25C G27A G36U C45A | 0.01
111 | G7C A12U C23G G29C G33U A41U | 0.02
112 | G7C A12U G36C U43C | 0.07
113 | G7C A12U U28A G36U U38A | 0.02
114 | G7C A14C C15A G30A | 0.02
115 | G7C A14C C15G C31U G33C | 0.09
116 | G7C A14C C45G | 0.04
117 | G7C A14C C46U | 0.01
118 | G7C A14U C23G G29U | 0.08
119 | G7C A14U G36U U38C | 0.09
120 | G7C A16C G17A A26U U32A U38G | 0

Row | Variant | self-cleavage
121 | G7C A16G G17U | 0.06
122 | G7C A16U C31G | 0.02
123 | G7C A16U G17C U32C U34G | 0.02
124 | G7C A16U G29A C31U C46U | 0.01
125 | G7C A16U U20C G40U G44A | 0.09
126 | G7C A24G G33A C37G | 0.02
127 | G7C A24U U43A | 0.08
128 | G7C A25C U34A | 0.02
129 | G7C A25G C46U | 0.1
130 | G7C A25U C46U | 0.06
131 | G7C A26G U32A | 0.03
132 | G7C A39C A41U C45A | 0.02
133 | G7C A39C G44U | 0.1
134 | G7C C8A A24G U43C | 0.06
135 | G7C C8A C18A G36A C42G C45A | 0.09
136 | G7C C8A C23U G36A C46A | 0.13
137 | G7C C8A G19U C46A | 0.53
138 | G7C C8G A16U C31U U38G | 0.06
139 | G7C C8G C13U G21C | 0.07
140 | G7C C8G C18U C31A G44C | 0.01
141 | G7C C8U A11C C15U G27A G30A C37A U38C | 0.01
142 | G7C C8U C10A A14U C37U A39C | 0.02
143 | G7C C8U C13G G29C | 0.07
144 | G7C C8U C18G A25C U38G A41U | 0.03

Row | Variant | self-cleavage
145 | G7C C8U C18G C31U C42A | 0.14
146 | G7C C8U G21A | 0.64
147 | G7C C10A A12U A25U G30C | 0.1
148 | G7C C10A A16C G19U A24C C46A | 0.01
149 | G7C C10A A25U A39C A41C | 0.01
150 | G7C C10A C13U G33U | 0
151 | G7C C10A C23A | 0.01
152 | G7C C10A C31G G44U | 0.03
153 | G7C C10A G21U G35U C45U | 0.04
154 | G7C C10A U32G | 0.04
155 | G7C C10A U34C C45U C46U | 0.03
156 | G7C C10G A11U A26C C46G | 0.03
157 | G7C C10G C13G C18G U20C A26U G30C G36C | 0.01
158 | G7C C10U A39U | 0.03
159 | G7C C13A A14G | 0
160 | G7C C13G A26G G44A | 0.06
161 | G7C C13G C15U U20A G27U G30A C46A | 0.05
162 | G7C C13G C18U U38G C45U | 0.01
163 | G7C C13G C23U A25U U32G C37G U38C C46U | 0.03
164 | G7C C13U A24C A39C | 0.06
165 | G7C C13U C23U A25C C46A | 0.01
166 | G7C C13U G17U | 0.08
167 | G7C C13U G19U U20C G36A C46U | 0.11
